# Results: the supplement of paper PMC8728848
# The list shows a part of the results.
# B1: Nictaba (Nicotiana tabacum), Q94EW1 (protein)
# chain: MQGQWIAARDLSITWVDNPQYWTWKTVDPNIEVAELRRVAWLDIYGKIETKNLIRKTSYAVYLVFKLTDNPRELERATASLRFVNEVAEGAGIEGTTVFISKKKKLPGELGRFPHLRSDGWLEIKLGEFFNNLGEDGEVEMRLMEINDKTWKSGIIVKGFDIRPN
# How the values were obtained:
# Assay in all cases: glycan array binding signal (z-score within array); higher = stronger binding
# Settings in all cases: glycan notation: IUPAC condensed, linker removed
# [1] = target: Gal(b1-3)GlcNAc(b1-3)Gal(b1-4)GlcNAc(b1-2)[Gal(b1-3)GlcNAc(b1-3)Gal(b1-4)GlcNAc(b1-6)]Man(a1-6)[Gal(b1-3)GlcNAc(b1-3)Gal(b1-4)GlcNAc(b1-2)Man(a1-3)]Man(b1-4)GlcNAc(b1-4)[Fuc(a1-6)]GlcNAc
# Procedure, shortened: (§1)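 Arrays were curated from the Consortium for Functional Glycomics database, 3228 in total, and kept only where the protein sequence was available. Binding is expressed as a within-array Z-score. This score was averaged across arrays of the same protein sequence at different concentrations or buffers and across linkers, and negative values can be read as non-binding.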
# [2] = target: Gal(b1-3)GlcNAc(b1-3)Gal(b1-4)GlcNAc(b1-3)Gal(b1-4)GlcNAc(b1-2)[Gal(b1-3)GlcNAc(b1-3)Gal(b1-4)GlcNAc(b1-3)Gal(b1-4)GlcNAc(b1-6)]Man(a1-6)[Gal(b1-3)GlcNAc(b1-3)Gal(b1-4)GlcNAc(b1-3)Gal(b1-4)GlcNAc(b1-2)Man(a1-3)]Man(b1-4)GlcNAc(b1-4)[Fuc(a1-6)]GlcNAc
# Procedure, shortened: as §1
# [3] = target: Gal(b1-3)GlcNAc(b1-3)Gal(b1-4)GlcNAc(b1-6)[Gal(b1-3)GlcNAc(b1-3)]Gal(b1-4)Glc
# Procedure, shortened: as §1
# [4] = target: Gal(b1-3)GlcNAc(b1-3)Gal(b1-4)[Fuc(a1-3)]GlcNAc
# Procedure, shortened: as §1
# [5] = target: Gal(b1-3)GlcNAc(b1-3)Gal(b1-4)[Fuc(a1-3)]GlcNAc(b1-6)[Gal(b1-3)GlcNAc(b1-3)]Gal(b1-4)Glc
# Procedure, shortened: as §1
# [6] = target: Gal(b1-3)GlcNAc(b1-3)GalNAc
# Procedure, shortened: as §1
# [7] = target: Gal(b1-3)GlcNAc(b1-6)Gal(b1-4)GlcNAc
# Procedure, shortened: as §1
# [8] = target: Gal(b1-3)GlcNAc(b1-6)GalNAc
# Procedure, shortened: as §1
# [9] = target: Gal(b1-3)GlcNAc(b1-6)[Gal(b1-3)]GalNAc
# Procedure, shortened: as §1
# Gal(b1-3)GlcNAc6S = target: Gal(b1-3)GlcNAc6S
# Procedure, shortened: as §1
# [10] = target: Gal(b1-3)[Fuc(a1-4)]GlcNAc
# Procedure, shortened: as §1
# [11] = target: Gal(b1-3)[Fuc(a1-4)]GlcNAc(b1-2)Man
# Procedure, shortened: as §1
# [12] = target: Gal(b1-3)[Fuc(a1-4)]GlcNAc(b1-2)Man(a1-3)[Gal(b1-3)[Fuc(a1-4)]GlcNAc(b1-2)Man(a1-6)]Man(b1-4)GlcNAc(b1-4)GlcNAc
# Procedure, shortened: as §1
# [13] = target: Gal(b1-3)[Fuc(a1-4)]GlcNAc(b1-2)Man(a1-3)[Gal(b1-3)[Fuc(a1-4)]GlcNAc(b1-2)Man(a1-6)]Man(b1-4)GlcNAc(b1-4)[Fuc(a1-6)]GlcNAc
# Procedure, shortened: as §1
# [14] = target: Gal(b1-3)[Fuc(a1-4)]GlcNAc(b1-3)Gal(b1-3)[Fuc(a1-4)]GlcNAc
# Procedure, shortened: as §1
# [15] = target: Gal(b1-3)[Fuc(a1-4)]GlcNAc(b1-3)Gal(b1-4)GlcNAc
# Procedure, shortened: as §1
# [16] = target: Gal(b1-3)[Fuc(a1-4)]GlcNAc(b1-3)Gal(b1-4)[Fuc(a1-3)]GlcNAc
# Procedure, shortened: as §1
# [17] = target: Gal(b1-3)[Fuc(a1-4)]GlcNAc(b1-6)GalNAc
# Procedure, shortened: as §1
# [18] = target: Gal(b1-3)[GlcNAc(b1-6)]GalNAc
# Procedure, shortened: as §1
# [19] = target: Gal(b1-3)[GlcNAc(b1-6)]GlcNAc
# Procedure, shortened: as §1
# [20] = target: Gal(b1-3)[Neu5Ac(a2-6)]GalNAc
# Procedure, shortened: as §1
# [21] = target: Gal(b1-3)[Neu5Ac(a2-6)]GlcNAc
# Procedure, shortened: as §1
# [22] = target: Gal(b1-3)[Neu5Ac(a2-6)]GlcNAc(a1-4)Gal(b1-4)Glc
# Procedure, shortened: as §1
# [23] = target: Gal(b1-3)[Neu5Ac(a2-6)]GlcNAc(b1-4)Gal(b1-4)Glc
# Procedure, shortened: as §1
# [24] = target: Gal(b1-3)[Neu5Ac(a2-6)]GlcNAc(b1-6)Gal(b1-4)Glc
# Procedure, shortened: as §1
# [25] = target: Gal(b1-3)[Neu5Ac(b2-6)]GalNAc
# Procedure, shortened: as §1
# [26] = target: Gal(b1-3)[Neu5Ac(b2-6)]GlcNAc
# Procedure, shortened: as §1
# Gal(b1-4)Gal = target: Gal(b1-4)Gal
# Procedure, shortened: as §1
# [27] = target: Gal(b1-4)GalNAc(a1-3)[Fuc(a1-2)]Gal(b1-4)GlcNAc
# Procedure, shortened: as §1
# [28] = target: Gal(b1-4)GalNAc(b1-3)[Fuc(a1-2)]Gal(b1-4)GlcNAc
# Procedure, shortened: as §1
# Gal(b1-4)Glc = target: Gal(b1-4)Glc
# Procedure, shortened: as §1
# Gal(b1-4)Glc6S = target: Gal(b1-4)Glc6S
# Procedure, shortened: as §1
# Gal(b1-4)GlcNAc = target: Gal(b1-4)GlcNAc
# Procedure, shortened: as §1
# [29] = target: Gal(b1-4)GlcNAc(a1-6)Gal(b1-4)GlcNAc
# Procedure, shortened: as §1
# Gal(b1-4)GlcNAc(b1-2)Man = target: Gal(b1-4)GlcNAc(b1-2)Man
# Procedure, shortened: as §1
# [30] = target: Gal(b1-4)GlcNAc(b1-2)Man(a1-3)Man(b1-4)GlcNAc(b1-4)GlcNAc
# Procedure, shortened: as §1
# [31] = target: Gal(b1-4)GlcNAc(b1-2)Man(a1-3)[Gal(b1-4)GlcNAc(b1-2)Man(a1-6)]Man(b1-4)GlcNAc(b1-4)GlcNAc
# Procedure, shortened: as §1
# [32] = target: Gal(b1-4)GlcNAc(b1-2)Man(a1-3)[Gal(b1-4)GlcNAc(b1-2)Man(a1-6)]Man(b1-4)GlcNAc(b1-4)[Fuc(a1-6)]GlcNAc
# Procedure, shortened: as §1
# [33] = target: Gal(b1-4)GlcNAc(b1-2)Man(a1-3)[Gal(b1-4)GlcNAc(b1-2)Man(a1-6)][Gal(b1-4)GlcNAc(b1-4)]Man(b1-4)GlcNAc(b1-4)[Fuc(a1-6)]GlcNAc
# Procedure, shortened: as §1
# [34] = target: Gal(b1-4)GlcNAc(b1-2)Man(a1-3)[Gal(b1-4)GlcNAc(b1-2)Man(a1-6)][GlcNAc(b1-4)]Man(b1-4)GlcNAc(b1-4)[Fuc(a1-6)]GlcNAc
# Procedure, shortened: as §1
# [35] = target: Gal(b1-4)GlcNAc(b1-2)Man(a1-3)[Gal(b1-4)GlcNAc(b1-2)][GlcNAc(b1-4)]Man(b1-4)GlcNAc(b1-4)GlcNAc
# Procedure, shortened: as §1
# [36] = target: Gal(b1-4)GlcNAc(b1-2)Man(a1-3)[GlcNAc(b1-2)Man(a1-6)]Man(b1-4)GlcNAc(b1-4)GlcNAc
# Procedure, shortened: as §1
# [37] = target: Gal(b1-4)GlcNAc(b1-2)Man(a1-3)[GlcNAc(b1-4)][Gal(b1-4)GlcNAc(b1-2)Man(a1-6)]Man(b1-4)GlcNAc(b1-4)GlcNAc
# Procedure, shortened: as §1
# [38] = target: Gal(b1-4)GlcNAc(b1-2)Man(a1-3)[Man(a1-6)]Man(b1-4)GlcNAc(b1-4)GlcNAc
# Procedure, shortened: as §1
# [39] = target: Gal(b1-4)GlcNAc(b1-2)Man(a1-6)Man(b1-4)GlcNAc(b1-4)GlcNAc
# Procedure, shortened: as §1
binder,measurement,setting,value
B1,glycan array binding signal (z-score),[1],0.498
same,glycan array binding signal (z-score),[2],-0.001
same,glycan array binding signal (z-score),[3],-0.267
same,glycan array binding signal (z-score),[4],-0.387
same,glycan array binding signal (z-score),[5],-0.278
same,glycan array binding signal (z-score),[6],-0.277
same,glycan array binding signal (z-score),[7],0.097
same,glycan array binding signal (z-score),[8],-0.387
same,glycan array binding signal (z-score),[9],-0.381
same,glycan array binding signal (z-score),Gal(b1-3)GlcNAc6S,-0.383
same,glycan array binding signal (z-score),[10],-0.271
same,glycan array binding signal (z-score),[11],-0.385
same,glycan array binding signal (z-score),[12],-0.189
same,glycan array binding signal (z-score),[13],0.117
same,glycan array binding signal (z-score),[14],-0.233
same,glycan array binding signal (z-score),[15],-0.284
same,glycan array binding signal (z-score),[16],-0.273
same,glycan array binding signal (z-score),[17],-0.385
same,glycan array binding signal (z-score),[18],-0.309
same,glycan array binding signal (z-score),[19],-0.312
same,glycan array binding signal (z-score),[20],-0.272
same,glycan array binding signal (z-score),[21],-0.332
same,glycan array binding signal (z-score),[22],-0.335
same,glycan array binding signal (z-score),[23],-0.385
same,glycan array binding signal (z-score),[24],-0.195
same,glycan array binding signal (z-score),[25],-0.271
same,glycan array binding signal (z-score),[26],-0.39
same,glycan array binding signal (z-score),Gal(b1-4)Gal,-0.311
same,glycan array binding signal (z-score),[27],-0.283
same,glycan array binding signal (z-score),[28],-0.286
same,glycan array binding signal (z-score),Gal(b1-4)Glc,-0.297
same,glycan array binding signal (z-score),Gal(b1-4)Glc6S,-0.278
same,glycan array binding signal (z-score),Gal(b1-4)GlcNAc,-0.259
same,glycan array binding signal (z-score),[29],-0.282
same,glycan array binding signal (z-score),Gal(b1-4)GlcNAc(b1-2)Man,-0.283
same,glycan array binding signal (z-score),[30],2.85
same,glycan array binding signal (z-score),[31],3.74
same,glycan array binding signal (z-score),[32],1.64
same,glycan array binding signal (z-score),[33],0.29
same,glycan array binding signal (z-score),[34],0.532
same,glycan array binding signal (z-score),[35],-0.036
same,glycan array binding signal (z-score),[36],2.42
same,glycan array binding signal (z-score),[37],-0.103
same,glycan array binding signal (z-score),[38],3.52
same,glycan array binding signal (z-score),[39],0.684
